Test results published in patent US20140011728A1, “LONG-ACTING IL-1 RECEPTOR ANTAGONISTS” (Novo Nordisk A/S, published 2014).

target: IL-1 receptor expressed by INS-1 cells (rat (INS-1 cells are derived from a rat …, UniProt Q02955)); experiment: cell-based or functional assay

NO release [µM] | Binder
0.27 | N-epsilon118-[N-octadecandioyl-gamma-L-glutamyl-[2-(2-amino-ethoxy)-ethoxy]-acetyl-[2-(2-amino-ethoxy)-ethoxy]-acetyl][Met25]hIL-1Ra([…]) (compound B) (ligand, N-octadecandioyl-gamma-L-glutamyl-[2-(2-amino-ethoxy)-ethoxy]-acetyl-[2-(2-amino-ethoxy)-ethoxy]-acetyl on the epsilon amino group of K118 (position relative to hIL-1Ra Isoform 1); more than 80% of acylation was on this residue) not shown
0.54 | anakinra ([Met25]hIL-1Ra([…])) (ligand) not shown
2.36 | [Met25]hIL-1Ra([…]) with N-octadecandioyl-gamma-L-glutamyl-[2-(2-amino-ethoxy)-ethoxy]-acetyl-[2-(2-amino-ethoxy)-ethoxy]-acetyl in position K31 or K34 … (ligand, monoacylation with N-octadecandioyl-gamma-L-glutamyl-[2-(2-amino-ethoxy)-ethoxy]-acetyl-[2-(2-amino-ethoxy)-ethoxy]-acetyl on the epsilon amino group of K31 or K34 (positions relative to hIL-1Ra Isoform 1)) not shown
-0.76 | [Met25]hIL-1Ra([…]) with N-hexadecandioyl-gamma-L-glutamate in position K118 or K121 (compound A) (ligand, monoacylation with N-hexadecandioyl-gamma-L-glutamate on the epsilon amino group of K118 or K121 (positions relative to hIL-1Ra Isoform 1); product contained ~50% of each isomer) not shown
